In all, about 50,000 compounds went through this assay and about 800 (1.6%) showed an effect of 50% or more. Some of the results follow.

The target of this assay is Bcl-2-like protein 10 (Homo sapiens) (UniProt Q9HD36). As to the kind of experiment: Phenotype converters, Bcl-B/TR3 peptide binding displacement, primary biochemical FP (AID 1240).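 Further: 0% = Bcl-B with tracer peptide and DMSO and 100% = tracer peptide lacking Bcl-B.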 The settings on record: GST-Bcl-B / FITC-TR3 peptide fluorescence polarization; stronger effect = higher value; compound at 3.75 mg/L.
Chain of UniProt Q9HD36 (Q9HD36 whole entry, looked up): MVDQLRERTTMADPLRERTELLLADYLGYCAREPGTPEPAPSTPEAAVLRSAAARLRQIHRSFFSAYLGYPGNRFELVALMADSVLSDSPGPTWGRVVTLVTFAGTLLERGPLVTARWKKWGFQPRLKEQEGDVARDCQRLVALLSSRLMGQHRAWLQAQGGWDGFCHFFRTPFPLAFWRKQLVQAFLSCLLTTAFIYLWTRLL
Regarding `Cc1cc([N+](=O)[O-])c(C)cc1-c1ccc(C=C2C(=O)NC(=O)NC2=O)o1`, the displacement worked out at 8.4%. With `CCOc1ccc(CNCCc2ccc(OC)c(OC)c2)cc1` the figure was -14.3%. Under `CCOP(=S)(OCC)SCn1c(=O)oc2cc(Cl)ccc21` stands 15.4%. Under `O=C1NC(=O)C(=Cc2ccc(-c3ccccc3C(=O)O)o2)C(=O)N1` stands 11.2%; under `O=c1c2ccccc2nc(-c2cccs2)n1-c1ccccc1`, 0.1%. In the case of `COc1ccc(CN2CCN(Cc3ccc(F)cc3)CC2)cc1`, the displacement was -3.5%.

`N#Cc1c(/N=C/c2c[nH]c3ccccc23)sc2c1CCCC2`: the displacement was 4.5%.

As to `Cc1ccc(OCC(=O)N2CCN(C)CC2)c(Br)c1`, the displacement was found to be 2.9%.

As for `COc1cc(OC)c(OC)cc1C=C1C(=O)NC(=S)NC1=O`, the displacement worked out at 15.1%. For `CN1C(=O)NC(=O)/C(=C\c2cccc(Oc3ccccc3)c2)C1=O`, the displacement was -15.8%.

As to `O=C1C=CC(=O)C(c2cc(Cl)ccc2Cl)=C1`, the displacement came out at 43.5%. As for `CN1C(=O)NC(=O)/C(=C\c2ccc([N+](=O)[O-])o2)C1=O`, the displacement came out at 17.3%. With `CC1(C)CC2(CCO1)NCCN1C(=O)CSC12` (stereo not given) the figure was -7.1%. `O=C1NC(=S)NC(=O)C1=Cc1ccc(-c2ccc(C(=O)O)cc2)o1`: the displacement was -49.4%. Under `CCc1ccc(CNCCc2c[nH]c3ccccc23)cc1` stands 5.3%; under `CC12CC3CC(C)(C1)CC(N)(C3)C2`, 4.3%; under `N#CCCOCC#CCN1CCCCC1`, -3.3%. On to `NCCc1c[nH]c2ccc(Cl)cc12`, for which the displacement amounted to 3.5%. As to `CN1C(=O)C(=Cc2cccc(OCCOc3ccc([N+](=O)[O-])cc3)c2)C(=O)N(C)C1=O`, the displacement was 6.4%. Under `CCOP(C)(=O)CN1CCCCC1` (stereo not given) stands 14.1%. Take `O=c1c2cc(I)ccc2nc(/C=C/c2ccc([N+](=O)[O-])cc2)n1-c1ccccc1`: the displacement is 1.1%. For `Cc1cccc(N2C(=O)/C(=C/c3ccc(OCc4cccc(C(=O)O)c4)cc3)C(=O)NC2=S)c1`, the displacement was determined as 4.9%.

In the case of `COc1ccc(CCNC2CCCCC2OC)cc1` (stereo not given), the displacement is 3.2%. `CCC1(c2ccccc2)C(=O)NC(=O)N(C(=O)c2cccc(F)c2)C1=O` (stereo not given): the displacement is 5.4%. With `CC(Cc1ccccc1)NC(=O)Cc1ccc(N)cc1` (stereo not given) the figure was 6.4%; with `O=c1oc2ccccc2c2c1C(c1cccc(F)c1)c1c(c3ccccc3oc1=O)O2`, 12.8%. `c1ccc(CN2CCN(C3CCCCC3)CC2)cc1`: the displacement is -15.8%. Take `Cc1ccc(S(=O)(=O)n2cc(C=C3C(=O)NC(=O)NC3=O)c3ccccc32)cc1`: the displacement came out at 11.6%. Under `Cn1cccc1CNCCc1ccc2c(c1)OCO2` stands 3.3%; under `OC12Oc3ccccc3C=C1N1CCC2CC1` (stereo not given), 3.9%; under `COCCNCCOc1c(C(C)C)cccc1C(C)C`, 1.8%. As for `CN1C(=O)NC(=O)/C(=C/c2ccc(-c3cccc([N+](=O)[O-])c3)o2)C1=O`, the displacement is -20.5%. With `O=C1NC(=S)NC(=O)C1=Cc1ccc(Sc2ccccc2)o1` the figure was 25%; with `CCOc1cc(C)cc2oc(=O)c3c(c12)CCCC3`, 3.8%; with `COc1ccccc1-n1c(C=C2C(=O)Nc3ccccc32)nc2ccccc2c1=O`, -6%.

`O=C(c1ccc(-c2ccccc2)cc1)N1CCN(c2cccc(Cl)c2)CC1`: the displacement amounted to 4.5%. Turning to `CCC1(CCC(C)C)C(=O)NC(=O)N(C(=O)c2ccc(F)cc2)C1=O` (stereo not given), the displacement turned out to be 2.2%. For `COc1ccc(O)c(CN2CCN(Cc3cccc(C)c3)CC2)c1`, the displacement came out at 5.8%. On to `COc1cc(/C=C/[N+](=O)[O-])cc(Br)c1OC(C)=O`, for which the displacement stood at 6.9%. With `O=C1Nc2ccccc2/C1=C/c1nc2ccc(I)cc2c(=O)n1-c1ccccc1` the figure was 4.5%; with `Clc1cccc(CCNCc2cccnc2)c1`, -1.1%. As to `O=C1NC(=O)C(=Cc2ccccc2OCc2ccccc2Cl)C(=O)N1`, the displacement is 13.7%. With `O=C1NC(=S)NC(=O)C1=Cc1cccc(OS(=O)(=O)c2ccc3ccccc3c2)c1` the figure was 3.4%. Under `O=[N+]([O-])c1cc(Cl)ccc1N1CCN(Cc2ccccc2)CC1` stands -10.7%. Turning to `Cn1c(O)c(C=Nc2ccc3c(c2)CCC3)c(=O)n(C)c1=O`, the displacement was -4.5%.

As to `O=C(CNC(=O)OCc1ccccc1)Nc1ccc(Br)cc1C(=O)c1ccccc1`, the displacement was 13.1%.

As to `CCCCn1c(N)c(C(=O)OCC)c2nc3ccccc3nc21`, the displacement was found to be 16.4%.

Turning to `O=C(CN1C(=O)c2ccccc2C1=O)Nc1ccc(Cl)cc1C(=O)c1ccccc1`, the displacement was found to be 1.7%. Regarding `CN1C(=O)C(=Cc2cn(Cc3ccc(F)cc3)c3ccccc23)C(=O)N(C)C1=O`, the displacement is 138%. Under `CCN1C(=O)C(=Cc2ccc(N(CC)CC)cc2)C(=O)N(CC)C1=S` stands 0.3%; under `COc1ccc(N2C(=O)CC(=O)NC2=S)cc1`, 0.3%. Under `CC1CN(c2ccc(C(F)(F)F)cc2[N+](=O)[O-])CCN1` (stereo not given) stands -4.6%; under `O=C(CCN1CCOCC1)Nc1ccc(Br)cc1C(=O)c1ccccc1`, 15.6%; under `CC12CCC3C(CC=C4CC(O)CCC43CO)C1CCC2O` (stereo not given), -14.1%. Under `COc1cc(/C=C(\C)[N+](=O)[O-])cc(OC)c1OC` stands 6.4%; under `CC(Cc1ccccc1)NC(=O)C(c1ccc(N)cc1)c1ccc(N)cc1` (stereo not given), 42.7%. Turning to `O=C(c1ccc(N2N=N2)cc1)c1ccc(N2N=N2)cc1`, the displacement is -2.3%. Under `COc1ccc(-n2c(-c3ccccc3F)nc3ccccc3c2=O)cc1` stands 11.2%; under `CCCCSc1nnc(NC(=O)Cn2c[n+]([N-][N+](=O)[O-])cn2)s1`, 1.9%. For the compound `COc1ccc(-c2nc3ccccc3c(=O)n2-c2ncccc2C)cc1`, the displacement was -3%.

With `O=C(COc1ccc2ccccc2c1)N1CCN(Cc2ccccc2C(F)(F)F)CC1`, the displacement is -1.6%. As for `O=[N+]([O-])c1ccc(N2CCOCC2)c(F)c1Br`, the displacement was 7.7%. Under `O=C1NC(=O)C(=Cc2ccc(O)c(O)c2)C(=O)N1` stands 13.5%; under `C#CC(C)(C)N1CC[C@@H](O)[C@@H]2CCC[C@@H]21`, -9.2%. Take `O=[N+]([O-])c1ccc(N2CCN(Cc3ccccc3)CC2)c(Cl)c1`: the displacement was 3.7%. For `CC(C)COP(C)(=S)/C(C#N)=C(\OC(=O)c1ccccc1)c1ccccc1` (stereo not given), the displacement was 11.4%.

Regarding `CCOc1ccc(-n2c(-c3ccc(OC)cc3)nc3ccccc3c2=O)cc1`, the displacement came out at 3%. For the compound `O=c1c2ccccc2nc(-c2cccs2)n1-c1ccc(Br)cc1`, the displacement is -9.7%. As to `CCC(=O)c1ccc(N2CCN(C)CC2)c(F)c1`, the displacement is -20%. With `Cc1ccc(-n2c(/C=C3/C(=O)Nc4ccc(Br)cc43)nc3ccccc3c2=O)cc1` the figure was 4.3%; with `COc1ccc(OCC(=O)Nc2ccc(Br)cc2C(=O)c2ccccc2)cc1`, -8.4%; with `O=C(COc1ccc(Cl)cc1)N1CCN(C2CCCCCC2)CC1`, -6%. `COc1ccc(O)c(CN2CCN(Cc3ccc(F)cc3)CC2)c1`: the displacement came to 3%. For the compound `COc1ccccc1/C=C1/C(=N\O)C2CCN1CC2`, the displacement was -10.6%. Consider `Cc1ccc(-c2nc3ccccc3c(=O)n2-c2ccc(Br)cn2)cc1`, for which the displacement was -5.2%.

Consider `CC(C)c1cccc(C(C)C)c1OCCCn1ccnc1`, for which the displacement is -3.3%.

`COc1ccccc1-n1c(/C=C/c2ccc3c(c2)OCO3)nc2ccccc2c1=O`: the displacement is -7.9%. `COC(C(=O)Nc1ccc(Br)cc1C(=O)c1ccccc1Cl)c1ccccc1` (stereo not given): the displacement was -10.2%. With `O=c1c2ccccc2nc(/C=C/c2ccccc2)n1-c1cccc([N+](=O)[O-])c1` the figure was 35.2%; with `CCC(C)N1CCN(Cc2cc(Br)ccc2OC)CC1` (stereo not given), -24%; with `O=C(Nc1nc2ccccc2s1)C(Cl)(Cl)Cl`, 3.5%. Under `CCCCn1c(=O)c(C(=O)Nc2cc([N+](=O)[O-])ccc2O)c(O)c2ccccc21` stands -2.9%; under `CN1CC2([N+](=O)[O-])CC=C(Cl)C([N+](=O)[O-])(C1)C2` (stereo not given), -5%. With `COc1cc(C=C2C(=O)NC(=S)NC2=O)ccc1OCc1c(C)no[n+]1[O-]` the figure was 3.2%; with `CC(=O)c1ccc(N2CCN(C)CC2)c(F)c1`, 1.2%. For the compound `CC(=O)c1ccc(NC(=O)C2C(C)(C)C2(C)C)cc1`, the displacement was -3.8%. Under `CC(C)(C)c1ccc(N2C(=O)CC(=O)NC2=O)cc1` stands 3.1%; under `CC1=NN(c2ccccc2)C(=O)/C1=C/c1c(O)[nH]c(=S)[nH]c1=O`, 0.6%. For the compound `CC1(C)C(C(=O)Nc2cccc3ccccc23)C1(C)C`, the displacement amounted to 3.9%.

`CC(C)(C)C(=O)CC(O)(c1ccccc1)C(Cl)(Cl)Cl` (stereo not given): the displacement was -0.7%.

For the compound `COc1ccc(CCNCc2cccc(Cl)c2)cc1`, the displacement was -15.1%. With `COc1cccc(CN2CCNCC2)c1OC` the figure was 15.6%. Turning to `CCc1ccc(N2C(=O)CC(=O)NC2=S)cc1`, the displacement was -7.8%. Under `Cc1cccc(-n2c(C)nc3ccccc3c2=O)n1` stands -13.6%. Turning to `Cc1ccc(OP(=O)(O)Oc2ccc(C)cc2)cc1`, the displacement amounted to 15.7%. Regarding `O=C(c1ccccc1)c1cc(Cl)ccc1NC(=O)c1nc[nH]c1C(=O)N1CCOCC1`, the displacement was -5.8%. Under `C=CCc1cc(/C=C2/C(=O)NC(=S)N(CC=C)C2=O)cc(OC)c1O` stands 10.6%. Regarding `COc1ccc(O)c(CN2CCN(Cc3cccc(Cl)c3)CC2)c1`, the displacement was 13.4%. With `CCC(C)c1ccc(N2C(=O)CC(=O)NC2=S)cc1` (stereo not given) the figure was -6.7%; with `O=C(CN1CCOCC1)c1ccc(Br)cc1`, 10%. Take `CCc1nc2ccccc2c(=O)n1-c1ccc2ccccc2c1`: the displacement was -5.1%. Under `COc1ccc(CN2CCN(C(=O)Cc3ccccc3)CC2)cc1Br` stands -10%.

As to `Cc1ccccc1-n1c(/C=C/c2ccccc2O)nc2ccccc2c1=O`, the displacement is -6.6%. Consider `COc1ccc(O)c(CN2CCN(Cc3ccc(C)cc3)CC2)c1`, for which the displacement was -8.7%. Under `COc1ccc(C(=O)NC(Cc2cnc[nH]2)C(=O)O)cc1` (stereo not given) stands 17.7%; under `CC(=O)n1cc(C2C(=O)NC(=O)NC2=O)c2ccccc21`, -4.1%. Under `CCN1CCN(c2ccc([N+](=O)[O-])cc2)CC1` stands 3.2%; under `O=C1NC(=O)N(c2ccccc2)C(=O)/C1=C/C=C/c1ccccc1[N+](=O)[O-]`, 12.8%; under `CN(C)C(=O)Oc1ccc([N+](=O)[O-])cc1`, 1.8%. Under `C=C(C)COc1cc(C)cc2oc(=O)c3c(c12)CCC3` stands 11.4%; under `COc1ccc(OC)c(-n2c(O)c(C=C3C=Nc4ccccc43)c(=O)[nH]c2=O)c1`, 118%. On to `CC(C)c1ccc(N2C(=O)CC(=O)NC2=S)cc1`, for which the displacement is -8.7%. Turning to `CCCCN(CC#CCOCCC#N)CCCC`, the displacement was -4.6%. Under `O=C(Nc1ccc(Cl)cc1C(=O)c1ccccc1)c1ccncc1` stands 10.5%.

For the compound `Cc1ccc(N2C(=O)NC(=O)/C(=C\c3cn(CC(=O)O)c4ccccc34)C2=O)cc1`, the displacement worked out at 183%.

The values above are taken from PubChem BioAssay AID1240 (Sanford-Burnham Center for Chemical Genomics, 2008).
